# PubChem BioAssay AID1159614 (National Center for Advancing Translational Sciences (NCATS), 2016)
# Out of some 45,000 compounds screened, about 65 (0.1%) were called active. Calls come from the whole dose curve; as a rule, active = well fitted activation curve with a large enough effect; inconclusive = small, poorly fitted or top-dose-only effect; inactive = no such curve, though single readings can be large or run the other way. This is one part of the list.
# Biological target: Galactocerebrosidase (Homo sapiens) (UniProt P54803)
# Sequence of UniProt P54803 (P54803 whole entry, looked up): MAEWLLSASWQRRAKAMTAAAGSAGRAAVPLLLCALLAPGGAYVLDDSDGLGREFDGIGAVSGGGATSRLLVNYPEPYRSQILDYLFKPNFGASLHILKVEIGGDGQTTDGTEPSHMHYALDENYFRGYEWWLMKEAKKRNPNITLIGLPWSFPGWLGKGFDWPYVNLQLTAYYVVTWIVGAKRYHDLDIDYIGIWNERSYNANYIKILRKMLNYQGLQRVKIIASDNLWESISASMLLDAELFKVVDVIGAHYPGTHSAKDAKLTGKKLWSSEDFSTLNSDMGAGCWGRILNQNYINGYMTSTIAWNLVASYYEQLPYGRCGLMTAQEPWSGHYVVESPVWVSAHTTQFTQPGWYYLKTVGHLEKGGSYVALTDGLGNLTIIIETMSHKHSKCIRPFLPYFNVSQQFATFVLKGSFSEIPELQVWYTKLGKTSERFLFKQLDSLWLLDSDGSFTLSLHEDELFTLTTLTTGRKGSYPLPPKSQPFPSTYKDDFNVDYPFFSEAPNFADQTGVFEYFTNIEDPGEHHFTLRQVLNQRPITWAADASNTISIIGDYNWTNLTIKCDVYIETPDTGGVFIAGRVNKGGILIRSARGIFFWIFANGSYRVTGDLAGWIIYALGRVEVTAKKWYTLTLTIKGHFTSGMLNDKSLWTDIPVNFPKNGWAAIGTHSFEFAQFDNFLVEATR
# Assay: A Novel Cell-Based Assay to Identify Small Molecules for B -Galactocerebrosidase; note: nearly all actives have a fitted effect of over 65% in size; for activation: 0% is about no effect
# Conditions: 145M-Twi-hGALC-G270D cells (Twitcher mouse brain line with human GALC G270D), HMU-beta-Gal fluorescence, 48 h; series mostly up to 57.5 µM; activation: at the top concentration
# Procedure, shortened: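 Fluorogenic HMU-b-Gal hydrolysis (0.1 mM final, pH 5.2 citrate-phosphate with 1 mg/mL sodium taurocholate; carbonate stop buffer) measures mutant GALC activity after compound treatment of live 145M-Twi Twitcher brain cells stably carrying human GALC-G270D, with wild-type GALC line alongside; activation sought.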
# Potency is the fitted concentration of half-maximal effect.
SMILES,activation,Potency
COc1cc(Cl)ccc1OC(=O)c1cn(-c2ccccc2OC)c(=O)c2ccccc12,inactive: -7.66%,
CC(C)CCNC(=O)c1ccc(Cn2c(SCC(=O)NC(C)C)nc3ccccc3c2=O)cc1,inactive: -22.3%,
Fc1cccc(Cl)c1CNc1n[nH]c(-c2ccco2)n1,inactive: -6.13%,
Cc1ccc(Cl)cc1N1CCN(C(=O)c2cccn2-c2nnc(N3CCCCC3)s2)CC1,inactive: -8.01%,
Cc1ccc(C)c(S(=O)(=O)c2nnn3c2nc(NCc2cccs2)c2sccc23)c1,inactive: -10.9%,
COc1ccc(NC(=O)Cc2csc(COc3cccc(C)c3)n2)cc1OC,inactive: -15.2%,
CCc1ccc(-n2c(SCC(=O)NC(C)CC)nc3n[nH]c(C)c3c2=N)cc1 (stereo not drawn),inactive: -10.2%,
COc1ccc(N2CC(NC(=O)c3ccc4c(c3)OCO4)CC2=O)cc1OC (stereo not drawn),inactive: -17.3%,
COc1ccc2c(c1)c1c(c(=O)n(-c3ccccc3)c(=O)n1CC(=O)Nc1ccc(F)cc1)n2C,inactive: -9.88%,
Cc1cc(NC(=O)c2ccc(-c3ccc(Br)cc3)o2)cc(-c2nc3ncccc3o2)c1O,inactive: -0.788%,
Cc1c(-c2ccccc2)c(=O)oc2c(CN3CCN(C)CC3)c(O)ccc12,,active: 4.47 µM
Cc1ccc2nc(Cl)c3cc(C(=O)NCCCN4CCC(C)CC4)sc3c2c1,inactive: -5.96%,
CC(C)(C)C(=O)NCCCC(=O)O,inactive: -12.6%,
COc1ccc(Cl)cc1C(=O)Nc1ccc2oc(-c3ccc(C(C)(C)C)cc3)nc2c1,inactive: -8.09%,
Cc1ccc(-c2nc(S(=O)(=O)c3ccc(Cl)cc3)c(N3CCCCC3)o2)cc1,inactive: -6.25%,
COc1ccc(CNC(=O)Cn2nnc(-c3ccccc3F)n2)cc1,inactive: -25.5%,
CCCn1ccc2c(OCC(=O)NCc3ccc(F)cc3)cccc2c1=O,inactive: -17.5%,
CCc1cc2c(cc3c(=O)n(CC(=O)N4CCCCC4)nc(CC)n32)s1,inactive: -1.56%,
CC(C)c1nnc(NC(=O)c2nc(SCc3ccc(F)cc3)ncc2Cl)s1,inactive: -15.4%,
NC12CC3CC(CC(C3)C1)C2,inactive: -15.1%,
Cc1cc2n(n1)CCCN2C(=O)Nc1ccc(Cl)cc1,inactive: -16.3%,
CCCSc1ncc(Cl)c(C(=O)Nc2sc3c(c2C(=O)NCC)CCCC3)n1,inactive: -5.57%,
CCCSC1=NC2(CCN(C(=O)NC3CCCCC3)CC2)N=C1c1ccccc1,inactive: -9.03%,
COc1cccc(NC(=O)CN(Cc2ccccc2)S(=O)(=O)c2ccc3nc(C)sc3c2)c1,inactive: -4.69%,
CSc1ncc(Cl)c(C(=O)Nc2nc3ccc(F)cc3s2)n1,inactive: -16.5%,
CCOC(=O)c1c(S(=O)(=O)NCC(=O)Nc2ccc(Cl)c(C(F)(F)F)c2)c(C)n(C)c1C,inactive: 3.72%,
CCCCc1nn2c(=O)cc(COC(=O)c3cccc(NC(=O)c4cccc(C)c4)c3)nc2s1,inactive: -0.859%,
CCN1CCN(C(=O)c2ccc3c(c2)N(Cc2ccccc2)C(=O)c2ccccc2S3=O)CC1 (stereo not drawn),inactive: 6.59%,
